Measurements from ChEMBL document CHEMBL5303300, “EUbOPEN Chemogenomics Library - Multiplex” (2023).
Some entries of the source have several records that differ or are many. This is not the full list of results. The source may hold further records. Results that share an entry repeat one measurement in other runs, samples, wells, individuals or studies.

Tests used:
Assay type in all cases: toxicity, cell-based
U2OS = test: Multiplex assay against U2OS; conditions: human, number of replicates 2
Outline: (§1)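 Cells stained live at seeding with Hoechst33342, BioTracker Green Microtubule Cytoskeleton Dye, MitoTracker Red and Annexin V Alexa Fluor 680 were imaged on a CQ1 microscope at 37°C and 5% CO2 after compound addition. Their classification by CellPathfinder machine-learning gating ran from Hoechst high-intensity objects versus normal cells, to healthy, pyknosed or fragmented nuclei among normal cells, to mitotic or apoptotic among pyknosed cells. Tubulin, mitochondrial-mass and membrane-permeability phenotypes are per cents of healthy-nucleus cells.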

HEK-293T = test: Multiplex assay against HEK293T; conditions: human, 24 h, number of replicates 2; outline: as §1
Fibroblast = test: Multiplex assay against human fibroblast; conditions: 48 h, 10 µM, compound concentration 10 uM, number of replicates 2; outline: as §1
[1] = 12 h, 1 µM, compound concentration 1 uM
[2] = 12 h, 10 µM, compound concentration 10 uM
[3] = 24 h, 10 µM, compound concentration 10 uM
[4] = 48 h, 1 µM, compound concentration 1 uM
[5] = 48 h, 10 µM, compound concentration 10 uM
[6] = 24 h, 1 µM, compound concentration 1 uM

SMILES | Population Fragmented Nuclei (%) (U2OS; [1]) | Population Membrane Permeable-Phenotype (%) (U2OS; [1]) | Population Fragmented Nuclei (%) (U2OS; [2]) | Total Cell Count (U2OS; [2]) | Population Healthy Nuclei (%) (U2OS; [3]) | Total Cell Count (U2OS; [3]) | Total Cell Count (U2OS; [4]) | Total Cell Count (U2OS; [5]) | Population Mitotic Cells (%) (U2OS; [1]) | Total Cell Count (U2OS; [1]) | Total Cell Count (U2OS; [6]) | Population Fragmented Nuclei (%) (U2OS; [3]) | Population Fragmented Nuclei (%) (U2OS; [4]) | other results
CC(C)S(=O)(=O)c1ccccc1Nc1nc(N[C@@H]2CCCN(CCCCCCCNC(=O)COc3cccc4c3C(=O)N(C3CCC(=O)N(C)C3=O)C4=O)C2)ncc1Cl (stereo partly specified) | 42% and 4% | 17% and 5% | 29% and 5% | 31 and 236 | 8% and 30% | 25 and 254 | 57 and 212 | 23 and 234 | – | – | – | – | – | Population Mitotic Cells (%) (HEK-293T; 1 µM, compound concentration 1 uM): 51% and 16%
Cc1cc(C2CCCNC2)ccc1Nc1ncc(Br)c(NCc2cccc3c2C(C)(C)C(=O)N3)n1 (stereo unspecified) | 32% and 10% | – | – | 59 and 339 | 19% and 63% | 47 and 328 | – | 46 and 329 | – | – | – | – | – | Population Fragmented Nuclei (%) (U2OS; [6]): 26% and 5%; Population Healthy Nuclei (%) (U2OS; [5]): 4% and 48%; Population Membrane Permeable-Phenotype (%) (Fibroblast): 25% and 6%
COCCNC1CCC(Nc2cc(-c3csc(NCC4(C#N)CCOCC4)n3)c(Cl)cn2)CC1 (stereo unspecified) | – | 28% and 7% | – | 181 and 51 | 6% and 33% | 45 and 165 | 188 and 31 | 44 and 160 | 55% and 12% | 41 and 204 | 36 and 213 | – | – | Population Healthy Nuclei (%) (U2OS; [2]): 48% and 12%; Population Membrane Permeable-Phenotype (%) (U2OS; [2]): 29% and 0%; Population Mitotic Cells (%) (U2OS; [6]): 40% and 5%; Population Mitotic Cells (%) (U2OS; [4]): 1% and 21%; Population Mitotic Cells (%) (HEK-293T; 10 µM, compound concentration 10 uM): 8% and 32%
Cc1onc(-c2ccccc2Cl)c1C(=O)N(C)c1ccc(Cl)cc1 | 28% and 2% | 20% and 4% | 34% and 4% | 69 and 243 | – | 94 and 333 | 78 and 604 | 140 and 611 | – | 35 and 179 | 40 and 275 | 23% and 3% | 17% and 2% | Population Fragmented Nuclei (%) (U2OS; [6]): 17% and 2%; Population Membrane Permeable-Phenotype (%) (U2OS; [6]): 20% and 5%; Population Fragmented Nuclei (%) (U2OS; [5]): 16% and 1%; Population Fragmented Nuclei (%) (Fibroblast): 3% and 15%
C[C@@H]1CC[C@@]2(OC1)O[C@H]1[C@@H](O)[C@H]3[C@@H]4CC[C@H]5C[C@@H](O[C@@H]6O[C@H](CO)[C@H](O[C@@H]7O[C@H](CO)C(O)[C@H](O[C@@H]8OC[C@@H](O)[C@H](O)[C@H]8O)[C@H]7O[C@@H]7O[C@H](CO)[C@H](O)[C@H](O[C@@H]8O[C@H](CO)[C@@H](O)[C@H](O)[C@H]8O)[C@H]7O)[C@H](O)[C@H]6O)[C@H](O)C[C@]5(C)[C@H]4CC[C@]3(C)[C@H]1[C@@H]2C (stereo partly specified) [DIGITONIN] | – | – | 27, 9, 4, 2% | 37, 32, 250, 275 | – | 43, 49, 365, 375 | – | 75, 90, 728, 826 | – | – | – | 18% and 4% | – | Population Mitotic Cells (%) (U2OS; [2]): 50, 0, 60, 34%; Population Mitotic Cells (%) (U2OS; [3]): 50, 16, 41, 63%; Population Fragmented Nuclei (%) (U2OS; [5]): 17, 16, 1, 2%; Population Mitotic Cells (%) (U2OS; [5]): 30, 0, 37, 48%; Population Mitotic Cells (%) (Fibroblast): 10, 35, 25, 40%; Population Pyknosed Nuclei (%) (Fibroblast): 5%, 20%, 15%
C[C@@H](Oc1cc(-n2cnc3ccc(OC4CCN(C)CC4)cc32)sc1C(N)=O)c1ccccc1Cl [GSK-579289A] | – | – | – | 192 and 46 | – | 48 and 206 | 228 and 38 | 43 and 165 | 0% and 52% | 42 and 250 | 32 and 253 | – | 7% and 23% | Population Mitochondria Different-Phenotype (%) (U2OS; [1]): 9% and 28%; Population Mitochondria Different-Phenotype (%) (U2OS; [6]): 11% and 34%; Population Mitochondria Different-Phenotype (%) (U2OS; [4]): 42% and 4%; Population Mitotic Cells (%) (U2OS; [4]): 4% and 25%; Population Membrane Permeable-Phenotype (%) (Fibroblast): 4% and 19%
CC(C)N(CCCCOCC(=O)NS(C)(=O)=O)c1cnc(-c2ccccc2)c(-c2ccccc2)n1 [SELEXIPAG] | – | – | – | 45 and 272 | – | 63 and 382 | 52 and 732 | 116 and 824 | 0% and 61% | 21 and 221 | 36 and 317 | 20% and 3% | 15% and 1% | Population Pyknosed Nuclei (%) (U2OS; [4]): 17% and 4%; Population Mitotic Cells (%) (Fibroblast): 10% and 40%
